For one experiment, the system named is HSkMC. Description: cytotoxicity call (relative viability < 0.9). The conditions noted are these: 10 µM.
Another experiment concerns HepG2. Description: cytotoxicity call (relative viability < 0.9). The conditions noted are these: 10 µM.
The next experiment relates to S. aureus RN4220. Description: growth inhibition call (relative growth <= 0.2). The conditions noted are these: 50 µM.

Molecules are shown by their SMILES. This is one part of the list.

Turning to `Cc1ccc(S(=O)(=O)Nc2ccc3c(c2)CC(=O)N([C@@H](C)CO)C[C@H](C)[C@H](CN(C)C(=O)NC(C)C)O3)cc1`, the cytotoxicity call in the experiment on HSkMC and in the experiment with HepG2 was “inactive” throughout. The growth inhibition call with S. aureus RN4220 was “inactive”.
For the compound `COc1ccc(S(=O)(=O)N(C)C[C@H]2Oc3ccc(NS(=O)(=O)c4cccs4)cc3CC(=O)N([C@@H](C)CO)C[C@H]2C)cc1`, the cytotoxicity call in the experiment with HSkMC and in the experiment with HepG2 was “inactive” throughout. Besides, the growth inhibition call with S. aureus RN4220 is “inactive”.
With `Nc1cccc(/C=C/c2ccccn2)c1`, the cytotoxicity call in the experiment on HSkMC and in the experiment with HepG2 was “inactive” each time. In addition, the growth inhibition call in the experiment with S. aureus RN4220 was “inactive”.
Turning to `C[C@@H]1CN([C@H](C)CO)C(=O)c2cc(NC(=O)c3ccccc3)ccc2O[C@@H](C)CCCCO[C@H]1CN(C)Cc1ccccc1`, the cytotoxicity call in the experiment on HSkMC was “inactive”. In the experiment on HepG2, the cytotoxicity call was “active”. For the same compound, in the experiment with S. aureus RN4220, the growth inhibition call is “inactive”.
Turning to `C[C@H](CO)N1C[C@H](C)[C@H](CN(C)C(=O)C2CCCCC2)OCCCC[C@H](C)Oc2ccc(NC(=O)C3CCCCC3)cc2C1=O`, the cytotoxicity call in the experiment with HSkMC and in the experiment on HepG2 was “inactive” in each case. The growth inhibition call in the experiment with S. aureus RN4220 was “inactive”.
Take `C[C@@H]1CN([C@@H](C)CO)C(=O)c2cc(NS(C)(=O)=O)ccc2O[C@@H](C)CCCCO[C@@H]1CN(C)C(=O)c1ccncc1`: the cytotoxicity call with HSkMC and in the experiment with HepG2 was “inactive” throughout. In the experiment on S. aureus RN4220, the growth inhibition call was “inactive”.
Turning to `Cc1noc(C)c1S(=O)(=O)Nc1ccc2c(c1)C(=O)N([C@@H](C)CO)C[C@H](C)[C@@H](CN(C)Cc1ccc(C(F)(F)F)cc1)OCCCC[C@@H](C)O2`, the cytotoxicity call with HSkMC and in the experiment with HepG2 was “inactive” throughout. Moreover, the growth inhibition call with S. aureus RN4220 is “inactive”.
For `COCC#Cc1ccc2c(c1)O[C@@H](CN(C)C(=O)CN(C)C)[C@H](C)CN([C@@H](C)CO)S2(=O)=O`, the cytotoxicity call with HSkMC and in the experiment with HepG2 was “inactive” throughout. For the same compound, the growth inhibition call in the experiment on S. aureus RN4220 was “inactive”.
Take `C[C@H](CO)N1C[C@H](C)[C@H](CN(C)Cc2ccc3c(c2)OCO3)Oc2ccc(NS(C)(=O)=O)cc2C1=O`: the cytotoxicity call with HSkMC and with HepG2 was “inactive” in each case. Further, the growth inhibition call in the experiment with S. aureus RN4220 was “inactive”.
For the compound `C[C@@H]1CN([C@H](C)CO)C(=O)c2cccc(NC(=O)c3ccncc3)c2O[C@@H]1CN(C)S(=O)(=O)c1ccccc1`, the cytotoxicity call in the experiment with HSkMC and in the experiment with HepG2 was “inactive” throughout. Besides, the growth inhibition call with S. aureus RN4220 is “inactive”.
Turning to `CN1C(=O)c2cc(NC(=O)c3ccc(F)c(F)c3)ccc2OC[C@@H]2O[C@H](CC(=O)N3CCOCC3)CC[C@H]21`, the cytotoxicity call with HSkMC and in the experiment with HepG2 was “inactive” throughout. For the same compound, the growth inhibition call in the experiment on S. aureus RN4220 was “inactive”.
As to `O=C(C[C@H]1CC[C@@H](NC(=O)Nc2ccc3c(c2)OCO3)[C@@H](CO)O1)NCCCN1CCOCC1`, the cytotoxicity call in the experiment with HSkMC and in the experiment with HepG2 was “inactive” throughout. Moreover, in the experiment with S. aureus RN4220, the growth inhibition call is “inactive”.
In the case of `[O-][NH2+]N(CCO)CCO`, the cytotoxicity call in the experiment on HSkMC and with HepG2 was “inactive” in each case. In addition, the growth inhibition call with S. aureus RN4220 was “inactive”.
Turning to `C=CCOC(=O)[C@@H]1[C@H]2C(=O)O[C@H](c3ccccc3)[C@H](c3ccccc3)N2[C@H](c2ccc(OCCOC(=O)[C@@H]3C[C@@H]4C(=O)N[C@@H](Cc5ccccc5)C(=O)N4[C@@H]3c3ccc(O)cc3)cc2)[C@@]12C(=O)Nc1ccccc12`, the cytotoxicity call in the experiment on HSkMC and with HepG2 was “inactive” each time. The growth inhibition call with S. aureus RN4220 was “inactive”.
For the compound `COc1ccc(CN(C)C[C@H]2OCCCC[C@H](C)Oc3ccc(NC(=O)Nc4ccc(OC)cc4)cc3C(=O)N([C@H](C)CO)C[C@@H]2C)cc1`, in the experiment with HSkMC, the cytotoxicity call is “inactive”. Besides, the cytotoxicity call with HepG2 is “active”. Also, in the experiment with S. aureus RN4220, the growth inhibition call was “inactive”.
Regarding `Cc1cc(=O)n(CCO)c(=O)[nH]1`, the cytotoxicity call in the experiment on HSkMC (human skeletal muscle cells) and in the experiment with HepG2 was “inactive” throughout. Besides, the growth inhibition call in the experiment on S. aureus RN4220 is “inactive”.

The values above are taken from the antibiotic and cytotoxicity screens of Wong et al. (2023).
